# Laboratory results taken from a collection of fitness landscapes (doi:10.1016/j.celrep.2020.107928).
# Whole data set: some 81,000 sequences, median “one-hybrid fitness for binding NBS DNA” near -0.1, cut for the highest 2% near 0.36. The list shows a part of the results.
# B1: Caulobacter ParB omega fusion; a variant is named by its letters at X, in order, B8GW30 (parent)
# chain: MESVVVGEPGMSEGRRGLGRGLSALLGEVDAAPAQAPGEQLGGSREAPIEILQRNPDQPRRTFREEDLEDLSNSIREKGVLQPILVRPSPDTAGEYQIVAGERAWRAAQRAGLKTVPIMVRELDDLAVLEIGIIENVQRADLNVLEEALSYKVLMEKFERTQENIAQTIGKSXSHVANXMRLLXLPDEVQSYLVSGELTAXHARAIAAAADPVALAKQIIEGGLSVRETEALARKAPNLSAGKSKGGRPPRVKDTDTQALESDLSSVLGLDVSIDHRGSTGTLTITYATLEQLDDLCNRLTRGI
# Variants of: B1
# Experiment: one-hybrid fitness for binding NBS DNA (the Noc-binding site; scaled: cognate 1, non-cognate 0); higher = stronger binding
# Conditions: with NBS DNA site
# Summary of the method: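 The reporter was HIS3, with the binding site 19 bp from the promoter, in E. coli USO used for bacterial one-hybrid selection of Caulobacter ParB libraries with four specificity codons randomised. Growth was on M9 lacking histidine, with 0.1 mM IPTG and 5 mM 3-AT, for 48 hours at 37°C. Illumina sequencing covered plasmids before and after selection; three replicate libraries were pooled and variants with under 10 reads dropped. A fitness score is the log change in variant-to-wild-type read ratio, rescaled to the cognate and non-cognate references.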
row,Variant,one-hybrid fitness for binding NBS DNA
1,HDRV,≤ 0.2
2,DIIR,≤ 0.2
3,ADTG,≤ 0.2
4,ILNG,≤ 0.2
5,TYMN,≤ 0.2
6,QGLV,≤ 0.2
7,TSCV,≤ 0.2
8,VRDG,≤ 0.2
9,LQCC,≤ 0.2
10,LRYT,≤ 0.2
11,LICS,≤ 0.2
12,LNLL,≤ 0.2
13,ASMA,≤ 0.2
14,RYQH,≤ 0.2
15,GPKD,≤ 0.2
16,AQTV,≤ 0.2
17,GSTM,≤ 0.2
18,KQQA,≤ 0.2
19,VALY,≤ 0.2
20,LRRC,≤ 0.2
21,RHVG,≤ 0.2
22,TCLT,≤ 0.2
23,SVLT,≤ 0.2
24,CALM,≤ 0.2

row,Variant,one-hybrid fitness for binding NBS DNA
1,RCPS,≤ 0.2
2,SLPK,≤ 0.2
3,VDAQ,≤ 0.2
4,RDHA,≤ 0.2
5,VRRE,≤ 0.2
6,TGQS,≤ 0.2
7,VITH,≤ 0.2
8,TQKH,≤ 0.2
9,QCVF,≤ 0.2
10,LSHT,≤ 0.2
11,PCVT,≤ 0.2
12,QRRN,0.547
13,MTLV,≤ 0.2
14,HIDS,≤ 0.2
15,KRHS,0.464
16,QETS,≤ 0.2
17,ISLT,≤ 0.2
18,TLTE,≤ 0.2
19,FNKR,≤ 0.2
20,TRRK,≤ 0.2
21,GRVG,≤ 0.2
22,PYHR,≤ 0.2
23,DMWS,≤ 0.2
24,EQMR,≤ 0.2

row,Variant,one-hybrid fitness for binding NBS DNA
1,TNED,≤ 0.2
2,HMQP,≤ 0.2
3,QTKQ,0.568
4,VMFR,≤ 0.2
5,AAWS,≤ 0.2
6,NDTN,≤ 0.2
7,KKVS,≤ 0.2
8,DNMK,≤ 0.2
9,PASG,≤ 0.2
10,GVAA,≤ 0.2
11,GPRW,≤ 0.2
12,RSTF,≤ 0.2
13,AYSM,≤ 0.2
14,MNAC,≤ 0.2
15,ERVY,≤ 0.2
16,GTGS,≤ 0.2
17,PMCP,≤ 0.2
18,VHPG,≤ 0.2
19,TQWS,≤ 0.2
20,ATNA,≤ 0.2
21,CVSY,≤ 0.2
22,ENSV,≤ 0.2
23,SRKC,≤ 0.2
24,PILY,≤ 0.2

row,Variant,one-hybrid fitness for binding NBS DNA
1,CCWY,≤ 0.2
2,TLDL,≤ 0.2
3,RMGV,≤ 0.2
4,NHFG,≤ 0.2
5,PVSQ,≤ 0.2
6,FQFS,≤ 0.2
7,MNRT,≤ 0.2
8,AHHL,≤ 0.2
9,QYDR,0.305
10,MAAG,≤ 0.2
11,IVAE,≤ 0.2
12,WRGE,≤ 0.2
13,QETV,≤ 0.2
14,QYQV,≤ 0.2
15,PQLI,≤ 0.2
16,MIPK,≤ 0.2
17,DPES,≤ 0.2
18,QTLK,≤ 0.2
19,YKTR,≤ 0.2
20,GLPI,≤ 0.2
21,KHGS,≤ 0.2
22,AASK,≤ 0.2
23,YRCW,≤ 0.2
24,HSSD,≤ 0.2

row,Variant,one-hybrid fitness for binding NBS DNA
1,PPKD,≤ 0.2
2,DHSP,≤ 0.2
3,SVYT,≤ 0.2
4,KYCR,≤ 0.2
5,IEHT,≤ 0.2
6,LLTD,≤ 0.2
7,LVHN,≤ 0.2
8,WARR,≤ 0.2
9,VRPD,≤ 0.2
10,SRRQ,≤ 0.2
11,CRFV,≤ 0.2
12,RVHW,≤ 0.2
13,NSFG,≤ 0.2
14,RQYN,≤ 0.2
15,CVQS,≤ 0.2
16,QMVR,0.424
17,LQHE,≤ 0.2
18,KFCC,≤ 0.2
19,HAMC,≤ 0.2
20,QDVH,≤ 0.2
21,VAIG,≤ 0.2
22,YKYT,≤ 0.2
23,MEAF,≤ 0.2
24,TRMK,≤ 0.2

row,Variant,one-hybrid fitness for binding NBS DNA
1,PADM,≤ 0.2
2,CAPE,≤ 0.2
3,MLNG,≤ 0.2
4,QQTA,0.353
5,WPQT,≤ 0.2
6,DQVW,≤ 0.2
7,VTPI,≤ 0.2
8,RHTL,≤ 0.2
9,KTYC,≤ 0.2
10,HCLW,≤ 0.2
11,DCIF,≤ 0.2
12,PDVP,≤ 0.2
13,SEMR,≤ 0.2
14,MISG,≤ 0.2
15,FNRS,≤ 0.2
16,QKEW,≤ 0.2
17,RIFN,≤ 0.2
18,SRQS,≤ 0.2
19,LIPS,≤ 0.2
20,IRDN,≤ 0.2
21,PLHY,≤ 0.2
22,QVSP,≤ 0.2
23,WDGR,≤ 0.2
24,GGDQ,≤ 0.2

row,Variant,one-hybrid fitness for binding NBS DNA
1,DVDY,≤ 0.2
2,EHIR,≤ 0.2
3,TKTR,≤ 0.2
4,PNNY,≤ 0.2
5,TSKH,≤ 0.2
6,IKTK,≤ 0.2
7,DSLR,≤ 0.2
8,HYMG,≤ 0.2
9,NILE,≤ 0.2
10,RCKG,≤ 0.2
11,STNW,≤ 0.2
12,SRYN,≤ 0.2
13,YDPD,≤ 0.2
14,DMWG,≤ 0.2
15,KAIE,≤ 0.2
16,ANSR,≤ 0.2
17,RITD,≤ 0.2
18,YQRT,≤ 0.2
19,HQEM,≤ 0.2
20,HEPF,≤ 0.2
21,TCGR,≤ 0.2
22,AGRA,≤ 0.2
23,GEVW,≤ 0.2
24,RYTT,0.461

row,Variant,one-hybrid fitness for binding NBS DNA
1,PWNR,≤ 0.2
2,AQKT,≤ 0.2
3,DMTG,≤ 0.2
4,NNHT,≤ 0.2
5,KPPC,≤ 0.2
6,LVMR,≤ 0.2
7,CQVE,≤ 0.2
8,AAMN,≤ 0.2
9,VMSY,≤ 0.2
10,VGRW,≤ 0.2
11,PESE,≤ 0.2
12,LQKS,≤ 0.2
13,VPFR,≤ 0.2
14,QLLW,≤ 0.2
15,MWSR,≤ 0.2
16,PEDS,≤ 0.2
17,QPEN,≤ 0.2
18,RCMK,≤ 0.2
19,IEQT,≤ 0.2
20,RHNE,≤ 0.2
21,LGIL,≤ 0.2
22,RQFG,≤ 0.2
23,LDNS,≤ 0.2
24,RFDY,≤ 0.2

row,Variant,one-hybrid fitness for binding NBS DNA
1,KGDD,≤ 0.2
2,GNSL,≤ 0.2
3,HKDW,≤ 0.2
4,PPTN,≤ 0.2
5,QFML,≤ 0.2
6,STFR,≤ 0.2
7,THHS,≤ 0.2
8,PGKE,≤ 0.2
9,RLYT,0.391
10,TAHG,≤ 0.2
11,LTRL,≤ 0.2
12,PVNM,≤ 0.2
13,DVNG,≤ 0.2
14,LFRR,≤ 0.2
15,HSLE,≤ 0.2
16,ERST,≤ 0.2
17,HGMR,≤ 0.2
18,ITKI,≤ 0.2
19,AVQR,≤ 0.2
20,QYHS,0.417
21,FVWT,≤ 0.2
22,SHMM,≤ 0.2
23,RVRE,≤ 0.2
24,RWNS,0.237

row,Variant,one-hybrid fitness for binding NBS DNA
1,PCWK,0.33
2,LLPK,≤ 0.2
3,RTDW,≤ 0.2
4,MPDG,≤ 0.2
5,PDKW,≤ 0.2
6,RCCL,≤ 0.2
7,YYWC,≤ 0.2
8,YGQL,≤ 0.2
9,FDPR,≤ 0.2
10,TCIV,≤ 0.2
11,KSAQ,≤ 0.2
12,YSNS,≤ 0.2
13,DRFH,≤ 0.2
14,FNIG,≤ 0.2
15,AREN,≤ 0.2
16,CNTR,≤ 0.2
17,HTIA,≤ 0.2
18,PPLR,≤ 0.2
19,HMRT,≤ 0.2
20,TEAK,≤ 0.2
21,EDFT,≤ 0.2
22,FYMV,≤ 0.2
23,EAVV,≤ 0.2
24,RMLM,≤ 0.2

row,Variant,one-hybrid fitness for binding NBS DNA
1,YTLN,≤ 0.2
2,PTGK,≤ 0.2
3,EFEG,≤ 0.2
4,KETR,≤ 0.2
5,EVWG,≤ 0.2
6,NCSN,≤ 0.2
7,SAGR,≤ 0.2
8,QTVT,0.517
9,KVVM,≤ 0.2
10,QGMC,≤ 0.2
11,QKVK,≤ 0.2
12,SHRG,≤ 0.2
13,INTV,≤ 0.2
14,FNAT,≤ 0.2
15,PEST,≤ 0.2
16,PLWG,≤ 0.2
17,KLKY,≤ 0.2
18,QKSP,≤ 0.2
19,YGES,≤ 0.2
20,QRSN,0.366
21,EPLM,≤ 0.2
22,ACTS,≤ 0.2
23,PINS,≤ 0.2
24,QEES,≤ 0.2

row,Variant,one-hybrid fitness for binding NBS DNA
1,PMAC,≤ 0.2
2,GGII,≤ 0.2
3,QVPV,≤ 0.2
4,RNQF,≤ 0.2
5,YGGC,≤ 0.2
6,RRNV,0.456
7,AFIL,≤ 0.2
8,LCKL,≤ 0.2
9,HQLI,≤ 0.2
10,GCAV,≤ 0.2
11,QSVY,≤ 0.2
12,MEKG,≤ 0.2
13,HKTS,≤ 0.2
14,DMHA,≤ 0.2
15,YSSM,≤ 0.2
16,HCCR,≤ 0.2
17,HEIR,≤ 0.2
18,GIEG,≤ 0.2
19,TWQE,≤ 0.2
20,YPTH,≤ 0.2
21,RFIW,≤ 0.2
22,RTQR,0.575
23,PYFG,≤ 0.2
24,NGCR,≤ 0.2

row,Variant,one-hybrid fitness for binding NBS DNA
1,YPTM,≤ 0.2
2,KILR,≤ 0.2
3,RRAH,0.406
4,WYVG,≤ 0.2
5,QTWL,≤ 0.2
6,ASPW,≤ 0.2
7,GMKY,≤ 0.2
8,PYNV,≤ 0.2
9,WDVI,≤ 0.2
10,VQTL,≤ 0.2
11,VMGT,≤ 0.2
12,QLVM,≤ 0.2
13,SSVY,≤ 0.2
14,VDIV,≤ 0.2
15,QYDK,≤ 0.2
16,RYWK,≤ 0.2
17,VRSD,≤ 0.2
18,ELNT,≤ 0.2
